Measurements: PubChem BioAssay AID743279 (National Center for Advancing Translational Sciences (NCATS), 2014)
Among all 360,000 compounds or so, about 17,000 (4.7%) were called active. Inconclusive results, whose numbers are uncertain, are shown with a selection of clear calls. Rule as the data show it: active = activity change below about -50%; inconclusive = mostly about -30% to -49%; inactive = weaker than that.

test: qHTS for Inhibitors of Inflammasome Signaling: IL-1-beta AlphaLISA Primary Screen; settings: THP-1 LPS/ATP IL-1B secretion, 16 h; at 57.5 µM, stronger effect = lower value
How it was run: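 THP-1 cells pretreated 1 hr with compounds (up to 57.5 uM final), then stimulated with LPS (250 ng/mL final) plus ATP (1.25 mM final); secreted IL-1B measured by AlphaLISA after 16 hr, decreased signal indicating inhibition.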
% is scaled to controls: 0 for no effect and ±100 for the full control effect.

| SMILES | activity change |
| --- | --- |
| CN(C(=O)COc1ccccc1C(=O)NCCOc1ccccc1)c1ccccc1 | active: -96.8% |
| COc1ccc(C2CCCN2C(=S)Nc2cccc(C)c2)cc1OC (centres undefined) | inactive: -24.3% |
| COc1ccc(-c2cnc(SCC(=O)Nc3ccc4c(c3)OCO4)n2Cc2ccco2)cc1 | active: -73.2% |
| CN(C)c1ccc(NC(=O)Nc2nc(C(N)C3CCCCC3)cs2)cc1 (centres undefined) | active: -60.3% |
| CCOC(=O)c1cc(-c2ccccc2)sc1N | inconclusive: -43.1% |
| CN(CC(=O)Nc1cccc(F)c1)C(=O)c1cn(-c2ccccc2)nc1-c1ccc(Cl)cc1 | active: -59.9% |
| COc1cccc(CNC(=O)C2CCCN(C(=O)c3ccc(Cl)cc3)C2)c1 (centres undefined) | inactive: 9.8% |
| COc1ccccc1C1C=C(c2ccc(C)cc2)Nc2nnnn21 (centres undefined) | inconclusive: -37.1% |
| COc1cccc2[nH]c3c(N4CCc5ccccc5C4)ncnc3c12 | inconclusive: -33.1% |
| CCSc1nnc(NC(=O)C(C)(C(F)(F)F)C(F)(F)F)s1 | inactive: -0.587% |
| CCN(CC)c1ccc(/C=N/NC(=O)CNC(=O)c2cccs2)cc1 | inconclusive: -35.8% |
| CCc1ccc(-n2c(C)nc3cc(C(=O)NCc4cccnc4)ccc32)cc1 | inconclusive: -34.4% |
| N#Cc1c(Nc2ccccc2)sc(C(=O)c2ccc(F)cc2)c1N | inactive: 13.3% |
| COc1ccc(-c2csc(N(CCCN3CCOCC3)C(=O)c3ccco3)n2)cc1 | inconclusive: -46.1% |
| Cc1cc(C)c2nc(N(CCN(C)C)C(=O)c3ccc(S(=O)(=O)N(C)CC4CCCO4)cc3)sc2c1 (centres undefined) | inconclusive: -30.9% |
| CC(=O)OC[C@@H]1CN(Cc2ccccc2)C[C@H](n2cnc3c(N(C)C(C)C)ncnc32)O1 | inconclusive: -30.3% |
| Cc1ccc2cc(CN(CC3CCCO3)C(=S)NCc3ccco3)c(=O)[nH]c2c1 (centres undefined) | inconclusive: -37.6% |
| CC(C)CN1C(=O)c2ccccc2C1c1nnnn1-c1ccc2c(c1)OCCO2 (centres undefined) | inactive: 23.4% |
| O=C(CCl)N1CCN(C(=O)C2COc3ccccc3O2)CC1 (centres undefined) | active: -94.9% |
| O=C(NCC(c1cccs1)N1CCOCC1)c1cn(-c2ccccc2)nc1-c1ccc(Cl)cc1 (centres undefined) | inconclusive: -41.6% |
| O=C(CCl)Nc1ccccc1C(=O)Nc1ccc2c(c1)OCO2 | active: -97% |
| Nc1cc(-c2ccccc2)nn1Cc1ccccc1 | inconclusive: -42% |
| COC(=O)C1CCN(C2=C(NS(=O)(=O)c3ccc(Cl)cc3)C(=O)c3ccccc3C2=O)CC1 | inactive: 0% |

| SMILES | activity change |
| --- | --- |
| CN(C)c1ccc(C(=S)NCc2ccco2)cc1 | inactive: -13.7% |
| CC(=O)N1Cc2cc(C(=O)NCc3cccc(F)c3)nc(-c3cccc(C4=CCCC4)c3)c2[C@H]1CCO | active: -67.2% |
| COc1ccc(-c2cc(C(F)F)n3ncc(C(=O)N4CCN(C)CC4)c3n2)cc1 | inconclusive: -31.7% |
| Cc1cccc(C)c1NC(=O)CNC(=O)c1ccccc1 | inactive: 9.16% |
| O=C(/C=C/c1ccc(Cl)cc1)c1ccc([N+](=O)[O-])o1 | inconclusive: -37.8% |
| NC(=O)c1nsc(C(=O)N(c2cccc(F)c2)C(C(=O)NCC2CCCO2)c2cccs2)c1N (centres undefined) | inactive: -14.5% |
| N#Cc1ccc(N/N=C/c2cn(-c3ccccc3)nc2-c2ccccc2)c([N+](=O)[O-])c1 | inactive: 11.1% |
| O=C(c1cc2ccccc2oc1=O)N(Cc1cccs1)C1CCS(=O)(=O)C1 (centres undefined) | inactive: -6.97% |
| N#CC(=C(O)COC(=O)CCCNC(=O)c1ccc(Cl)cc1)c1nc2ccccc2[nH]1 | active: -97% |
| COc1cccc(NC(=O)CN(C)C(=O)Cc2c(C)nc3ccccc3c2C)c1 | inactive: 8.33% |
| COc1ccc(C(=O)NCC(=O)c2ccccc2)cc1 | inactive: -19.9% |
| COc1ccc(-c2nc(CN3CCCC(C(=O)NC4CCCC4)C3)c(C)o2)cc1 (centres undefined) | inconclusive: -38.8% |
| CC(C)(C)NCC(O)COc1ccc(Br)cc1 (centres undefined) | inconclusive: -42.5% |
| O=C(NCc1nc2ccccc2[nH]1)C1=C[C@H](c2ccc(Br)cc2)C[C@H](OCc2ccc(CO)cc2)O1 | inactive: -22.9% |
| Cc1nc([N+](=O)[O-])c(Br)n1CC(=O)c1ccc(Br)cc1 | active: -84% |
| COc1cc(/C=N\Nc2nc3ccccc3o2)cc(OC)c1OC | inconclusive: -40.9% |
| COCCCn1cnc2c(c1=O)c1nc3ccccc3nc1n2CCc1ccccc1 | inconclusive: -32.6% |
| CCOC(=O)/C(=N/Nc1ccc(C)cc1)S(=O)(=O)c1ccc(Cl)cc1 | inconclusive: -31.4% |
| Cc1cc(NC(=O)CS(=O)(=O)c2cn(Cc3cccc(Cl)c3)c3ccccc23)no1 | inactive: -25% |
| COc1ccc(-c2nc(-c3ccccc3OC)no2)cc1OC | inconclusive: -44.2% |
| CCOc1cc(C2CC(=O)c3c(ccc4ccccc34)N2)ccc1O (centres undefined) | inactive: 5.49% |
| O=C(CCSc1nc(-c2ccc3c(c2)OCO3)cc(C(F)(F)F)n1)NCc1ccccc1 | inactive: 14.5% |
| O=C(C1CCCN(S(=O)(=O)c2cccc3nonc23)C1)N1CCN(c2ccccc2)CC1 (centres undefined) | active: -50.6% |

| SMILES | activity change |
| --- | --- |
| COc1ccc(C(=O)c2ccccc2)cc1Br | active: -52.9% |
| COc1ccccc1CNCC(O)Cn1c2ccccc2c2ccccc21 (centres undefined) | active: -61.4% |
| Cc1ccc(NS(=O)(=O)c2sc3ccc(Cl)cc3c2C)cc1 | active: -84.6% |
| CC(C)(C)CC(=O)Nc1ccc(Nc2ccccc2)cc1 | active: -61.7% |
| O=C(c1ccc2c(c1)[nH]c(=S)n1c3ccccc3nc21)N1CCN(c2cccc(Cl)c2)CC1 | inactive: 11.6% |
| CCc1noc(C)c1C(=O)Nc1ccc(-c2nnc3n2CCCCC3)cc1 | inactive: -14.6% |
| Cc1cc(C)cc(NC(=O)c2ccc(S(=O)(=O)C(F)F)cc2)c1 | active: -87.1% |
| CN(C)c1ccc(N/C=C/C(=O)C(C)(C)C)cc1 | active: -97.5% |
| COC(=O)C1=C(C)Nc2sc(C(N)=O)c(N)c2C1c1ccncc1 (centres undefined) | inactive: 98.4% |
| COc1cc(C)ccc1OCc1cc(C(=O)N(Cc2c(C)nn(C)c2C)C2CC2)no1 | inactive: -1.96% |
| O=C(/C=C/c1ccc2c(c1)OCCO2)c1ccccc1 | inconclusive: -30.2% |
| CC(=O)c1ccc(N2CCN(C(=O)C(=O)c3cn(CC(=O)N4CCCCCC4)c4ccccc34)CC2)cc1 | inactive |
| CC(=O)Nc1ccc(Oc2ccc([N+](=O)[O-])cc2Cl)cc1 | active: -73% |
| COC(=O)c1ccc(CSc2nc3ccccc3c(=O)n2C)o1 | inconclusive: -30.1% |
| COc1ccc2cc(CN(CCc3ccccc3)Cc3nnnn3CC3CCCO3)c(=O)[nH]c2c1 (centres undefined) | inconclusive: -41.6% |
| COc1cc2c(cc1OC)CN(C(=O)COc1ccccc1C#N)CC2 | active: -73.6% |
| COC(=O)[C@@]1(Cc2ccc(F)cc2)[C@H]2c3cc(C(=O)N(C)C)n(Cc4cc(F)cc5c4OCOC5)c3C[C@H]2CN1C(=O)c1ccccc1 | inconclusive: -35.9% |
| O=S(=O)(c1cccc(F)c1)N1CCCN(c2ccc(C(F)(F)F)cn2)CC1 | inconclusive: -36.7% |
| Cc1cc(C)c(NS(=O)(=O)c2ccc3c(c2)oc(=O)n3C)c(C)c1 | inconclusive: -37.3% |
| Cc1[nH]c(=O)sc1C(=O)NCc1ccc([N+](=O)[O-])cc1 | inactive: 20.5% |
| CCOc1ccccc1CNC(=O)CCc1cn(C)c2ccccc12 | inconclusive: -42.4% |
| CCC(C)Sc1cccc(-c2nc3ccc(C)cn3c2NCc2ccccc2)c1 (centres undefined) | inconclusive: -42.9% |
| CN1C[C@@H]2C(c3ccc(C(F)(F)F)cc3)C3(c4ccccc4)CC2(C3)[C@H]1c1ccccc1 (some centres undefined) | inactive: 14.8% |
